Experimental data from the supplement of paper PMC4996465.

Assays:
[1] = tested on: KB3-1; experiment: viability (% of DMSO control); higher = more viable cells
Experimental: (§1)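 Eleven-dose screen of the NCATS MIPE 3 library on cells without co-treatment; CellTiter-Glo after 48 h, as % of DMSO wells.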

[2] = tested on: Nalm-6; experiment: as above
Experimental: as §1

[3] = tested on: Nalm-6; experiment: log AC50 of viability decrease (48 h) (log10 M); higher = less potent
Experimental: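 Eleven-dose screen of the NCATS MIPE 3 library on cells without co-treatment; CellTiter-Glo after 48 h. AC50 from the curve fit; only inhibitory curves of the better fit classes are listed.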

Compound	viability ([1]; 0.00078 µM) [%]	viability ([1]; 0.00234 µM) [%]	viability ([1]; 0.00702 µM) [%]	viability ([1]; 0.0211 µM) [%]	viability ([1]; 0.0632 µM) [%]	viability ([1]; 0.19 µM) [%]	viability ([1]; 0.569 µM) [%]	viability ([1]; 1.71 µM) [%]	viability ([1]; 5.12 µM) [%]	viability ([1]; 15.4 µM) [%]	viability ([1]; 46.1 µM) [%]	viability ([2]; run: 1, 0.00078 µM) [%]	viability ([2]; run: 1, 0.00234 µM) [%]	viability ([2]; run: 1, 0.00702 µM) [%]	viability ([2]; run: 1, 0.0211 µM) [%]	viability ([2]; run: 1, 0.0632 µM) [%]	viability ([2]; run: 1, 0.19 µM) [%]	viability ([2]; run: 1, 0.569 µM) [%]	viability ([2]; run: 1, 1.71 µM) [%]	viability ([2]; run: 1, 5.12 µM) [%]	viability ([2]; run: 1, 15.4 µM) [%]	viability ([2]; run: 1, 46.1 µM) [%]	viability ([2]; run: 2, 0.00078 µM) [%]	viability ([2]; run: 2, 0.00234 µM) [%]	viability ([2]; run: 2, 0.00702 µM) [%]	viability ([2]; run: 2, 0.0211 µM) [%]	viability ([2]; run: 2, 0.0632 µM) [%]	viability ([2]; run: 2, 0.19 µM) [%]	viability ([2]; run: 2, 0.569 µM) [%]	viability ([2]; run: 2, 1.71 µM) [%]	viability ([2]; run: 2, 5.12 µM) [%]	viability ([2]; run: 2, 15.4 µM) [%]	viability ([2]; run: 2, 46.1 µM) [%]	log AC50 of viability decrease ([3]; run: 1)	log AC50 of viability decrease ([3]; run: 2)
CC(C)C[C@H](NC(=O)c1cc2ccccc2s1)C(=O)N1CCN(C(=O)[C@H](CO)NS(=O)(=O)c2ccc(Cl)cc2Cl)CC1	102	99	101	101	97.5	97.5	97.9	97.3	102	97.4	19.8	98.4	105	97.1	98.5	97.1	95.3	84.4	84.5	68.6	72.7	0.135	99.9	97.1	99.7	105	101	103	102	102	101	104	2.83	-4.68	
CC(C)(C)OC(=O)CN(Cc1ccc(Cl)cc1)Cc1ccc([N+](=O)[O-])s1 [GSK-4112]	102	104	109	108	104	111	109	101	101	101	69.7	117	121	124	117	121	118	117	117	103	77.4	5.09	106	105	105	105	104	106	106	20.7	94.6	3.94	2	-4.73	
C[N]1C=C(C2=CC=CC=C12)\C3=C(\C(=O)NC3=O)C4=C[N](C5CCN(CC5)CC6=NC=CC=C6)C7=C4C=CC=C7 [Enzastaurin]	99.8	97.3	94.3	97.6	99.4	102	99.9	107	109	103	34.8	90.4	107	104	107	111	112	108	114	73.5	42.8	6.59	101	111	99.8	102	104	105	105	105	34.1	13	4.81	-4.93	-5.38
CCc1cncnc1N1CCN(Cc2nc3cc(C(F)(F)F)ccc3[nH]2)CC1	95.7	97.1	101	104	101	99.9	98.1	91	85.3	74.7	72.5	111	121	119	122	114	108	90.7	81.4	74.8	61.8	56.4	115	114	108	109	107	105	99.6	88.7	83.8	68.2	55.4	-5.93	-5.13
CN1CCN(CCOc2cc(OC3CCOCC3)c3c(Nc4c(Cl)ccc5c4OCO5)ncnc3c2)CC1 [Saracatinib]	104	105	104	98.8	106	107	102	105	107	109	75	124	120	119	121	120	118	106	94.3	88.8	79.3	21.1	107	106	106	101	108	109	105	92.7	80.9	81.5	21.9	-4.73	-4.68
CCc1cc(Nc2nccc(-c3c(-c4ccc(OC)c(C(=O)Nc5c(F)cccc5F)c4)nc4ccccn34)n2)c(OC)cc1N1CCC(N2CCN([S+](C)(=O)[O-])CC2)CC1	102	103	99.9	104	108	99.5	93	96.4	91.4	89.5	86	101	107	110	116	110	118	103	91	67.6	66.2	51.6	99.7	111	98.6	100	101	105	106	106	69.4	69.9	54.6	-5.58	-5.43
CN1C(=O)/C(=C(NC2=CC=C(I)C=C2F)\C3=C1\N=C/N(C[C@@H](O)CO)C3=O)F [TAK-733]	97.5	98	94.7	104	99.1	96.8	94.7	92	88.5	94.7	53.7	102	103	105	99.8	99.4	92.1	90.9	89.1	89.5	85.6	38.9	100	94.1	90.6	95.9	95.6	86.1	88.4	90	87.8	75.9	0.817	-4.63	-4.63

Viability of KB3-1 and Nalm-6 cells after 48 h of drug alone (CellTiter-Glo), 11 doses over about 4.5 log units. % of DMSO wells, lower = more cell loss; AC50 from the fitted curve, lower = more potent. No active / inactive call. Nalm-6 was screened in two runs. AC50 is listed only for well-fitted inhibitory curves. KB3-1 is a HeLa-derived carcinoma line, Nalm-6 a B-cell precursor leukaemia line.
